Paper PMC3272831 (Bioorganic & medicinal chemistry letters, 2011)

System: cathepsins in RAW264.7 macrophages
Type: cell-based
Details: 60 min, high probe concentrations

CCOC(=O)[C@@H]1O[C@H]1C(=O)N(CC(N)=O)NC(=O)[C@@H]1CCCN1C(=O)C1(NC(=O)CCCCCNC(=O)CCCCCN2/C(=C/C=C/C=C/C3=[N+](CC)c4ccc(S(=O)(=O)O)cc4C3(C)C)C(C)(C)c3cc(S(=O)(=O)[O-])ccc32)CC1 [LP-4]
labeling of cathepsins in intact cells (off-target, in words): labeled cathepsins at high probe concentrations

CCOC(=O)C1OC1C(=O)N(CC(N)=O)NC(=O)[C@@H]1CCCN1C(=O)CCCCCNC(=O)CCCCCN1/C(=C/C=C/C=C/C2=[N+](CC)c3ccc(S(=O)(=O)O)cc3C2(C)C)C(C)(C)c2cc(S(=O)(=O)[O-])ccc21 (some centres unmarked) [LP-1]
labeling of cathepsins in intact cells (off-target, in words): labeled cathepsins at high probe concentrations
